From the supplement of paper PMC3334620 come the findings set out here.

Whole data set: some 33,000 sequences, median “E-score (-0.5 to 0.5)” near -0.013, cut for the highest 2% near 0.3. The list shows a part of the results.

This assay deals with T1, Msn1 (UniProt P22148).
T1 sequence: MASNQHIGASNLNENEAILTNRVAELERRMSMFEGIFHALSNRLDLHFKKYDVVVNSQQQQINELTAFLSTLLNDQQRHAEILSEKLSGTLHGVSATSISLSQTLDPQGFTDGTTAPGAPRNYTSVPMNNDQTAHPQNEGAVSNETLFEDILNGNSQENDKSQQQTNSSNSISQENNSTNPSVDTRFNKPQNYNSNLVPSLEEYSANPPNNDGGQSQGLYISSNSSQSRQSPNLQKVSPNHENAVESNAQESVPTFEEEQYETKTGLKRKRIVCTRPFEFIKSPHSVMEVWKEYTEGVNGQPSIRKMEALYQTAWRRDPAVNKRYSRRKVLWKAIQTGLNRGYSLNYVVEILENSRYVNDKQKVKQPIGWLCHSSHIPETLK
In words: PBM E-score (8-mer binding enrichment) (E-score (-0.5 to 0.5)); higher = stronger / more preferred TF binding; most listed sequences are background and not binding sites. The conditions noted are these: protein concentration: 200 nM; construct: GST-full length. In short, it runs like this: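 PURExpress in vitro transcription/translation supplied GST-tagged yeast transcription factors, either full-length or DNA-binding domain. Applied at about 100-200 nM to universal all-10-mer Agilent arrays double-stranded by primer extension, the bound protein was detected with fluorescent anti-GST. E-scores, modified Wilcoxon-Mann-Whitney statistics, were given by the Universal PBM Analysis Suite to ungapped eight-base words pooled with their reverse complements after masliner normalisation.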
Take CCGCAAGC: the “PBM E-score” value was -0.199.
As for GCTTCAAA, the “PBM E-score” value is -0.109.
For GGACCTCA, the “PBM E-score” value is -0.0111.
For the sequence ATGAGGGC, the “PBM E-score” value is -0.168.
Next, ACAAAGGC: 0.098.
With AATGTGCG, the “PBM E-score” value is -0.0792.
In the case of AGAACATC, the “PBM E-score” value was determined as 0.0117.
Turning to CTAACTTC, the “PBM E-score” value was determined as 0.00461.
On to GGCACTGA, for which the “PBM E-score” value came out at 0.00441.
Consider AGCTTCTG, for which the “PBM E-score” value was -0.0868.
Consider AACGTGCC, for which the “PBM E-score” value was -0.152.
With AGACATGA, the “PBM E-score” value was 0.226.
Take GGAACTTA: the “PBM E-score” value was determined as 0.0221.
On to GCTTCTGA, for which the “PBM E-score” value is -0.0591.
Consider ATTCACAC, for which the “PBM E-score” value is 0.00376.
With GCTACGCA, the “PBM E-score” value is -0.215.
For the sequence AAGAGCGT, the “PBM E-score” value worked out at 0.128.
Take GTGAGCAA: the “PBM E-score” value was -0.0451.
As to GCGATGCC, the “PBM E-score” value is -0.171.
With CCCCTCAC, the “PBM E-score” value was -0.143.
Next, CCTAGGAC: 0.261.
On to GAGTCAGC, for which the “PBM E-score” value was -0.246.
With ACAAATCG, the “PBM E-score” value was 0.276.
To AAGATAGG belongs -0.0615.
Regarding AAGGCCCG, the “PBM E-score” value is -0.199.
Turning to ATTGGGGC, the “PBM E-score” value is -0.08.
Turning to AGCATATG, the “PBM E-score” value was -0.151.
To TAAACCCA belongs -0.0338; to CTTATCGA, 0.141; to AGCTCCAT, -0.251.
As to GGTATATA, the “PBM E-score” value came to 0.185.
Next, CATGAGGC: -0.225; GTCTATAA: 0.158.
With ACACTATA, the “PBM E-score” value is 0.17.
With AGATAGAA, the “PBM E-score” value is -0.00957.
To ATCAACAG belongs 6e-05; to ACAGGGAC, 0.324.
Consider CTCCGTGC, for which the “PBM E-score” value was -0.0848.
Take ACTCCCAG: the “PBM E-score” value was determined as 0.0682.
With CATCCGAC, the “PBM E-score” value was 0.147.
Next, ACAGGATG: 0.0943; ACAGGAGA: 0.122; TGGGAGAA: -0.209.
As to ACATCCGC, the “PBM E-score” value was determined as 0.227.
For the sequence ATCAGCCG, the “PBM E-score” value was -0.01.
Regarding GTGTTGCA, the “PBM E-score” value was -0.105.
Next, AGCCCTAC: -0.128.
As to CTATTAAC, the “PBM E-score” value worked out at 0.241.
For CAATAGCG, the “PBM E-score” value is -0.138.
For GGGATTAA, the “PBM E-score” value turned out to be 0.0402.
For ATAAGGAA, the “PBM E-score” value is -0.204.
Consider GTCATCTA, for which the “PBM E-score” value came out at 0.151.
Take AGAAATCT: the “PBM E-score” value was -0.0155.
On to GACATGCC, for which the “PBM E-score” value was 0.337.
To ATTTTCGG belongs 0.142; to ATTGACTG, -0.00757.
Next, TTATACAA: 0.136.
Next, CATCTCCA: -0.0799; CCGGGACG: -0.0555.
For ACACATTG, the “PBM E-score” value is 0.171.
For the sequence ACGAACAT, the “PBM E-score” value came out at 0.181.
For the sequence CGCTGTAA, the “PBM E-score” value is 0.0882.
Next, AGAATTCA: 0.0752; CTTCTGGA: -0.0254.
With ACTGCAGT, the “PBM E-score” value was 0.0373.
Turning to TGCTTCCA, the “PBM E-score” value is -0.146.
For the sequence AGGGCCAG, the “PBM E-score” value is -0.278.
Next, ACTCCCAT: -0.0704; GGCCTCCC: -0.318; AAATTGTT: 0.143.
With ATATGGTC, the “PBM E-score” value is 0.155.
Turning to CCACGCAC, the “PBM E-score” value was -0.11.
Take CTCGCTTA: the “PBM E-score” value was -0.0567.
ATCTGCCA: the “PBM E-score” value is -0.0272.
As to ACCACACA, the “PBM E-score” value is 0.0342.
Take GGAGGGCC: the “PBM E-score” value is -0.273.
In the case of CTGACCTA, the “PBM E-score” value turned out to be 0.0361.
To ACAGCTGC belongs -0.0289.
Turning to ATAACCTG, the “PBM E-score” value is -0.054.
With ATGATTGA, the “PBM E-score” value is -0.0128.
Turning to ACCGCTGC, the “PBM E-score” value was -0.271.
For the sequence CATTGTAA, the “PBM E-score” value is 0.134.
Consider AACCGCAG, for which the “PBM E-score” value was -0.113.
To ACGACTCC belongs -0.181; to CATCATGA, 0.0772.
In the case of CCTAACGC, the “PBM E-score” value was -0.129.
Turning to AGCTGAAT, the “PBM E-score” value is -0.00627.
To CATCAGTA belongs 0.0122; to CACTGTTA, -0.116.
As to AACCGAGG, the “PBM E-score” value was -0.21.
On to CGTTCCTC, for which the “PBM E-score” value was -0.12.
Turning to GAGTTGTA, the “PBM E-score” value is 0.12.
On to CCCCGCCG, for which the “PBM E-score” value was -0.371.
Take CGACTGAG: the “PBM E-score” value is -0.14.
Next, AGTGGAAT: -0.028; CATTAACA: 0.194; ATAACTTA: 0.13.
Consider AGTCTAAT, for which the “PBM E-score” value turned out to be 0.0556.
GATTGACA: the “PBM E-score” value is 0.0347.
For the sequence AGGGTCTG, the “PBM E-score” value was -0.326.
For the sequence AGACATTC, the “PBM E-score” value worked out at 0.445.
With CCAAAGAA, the “PBM E-score” value is -0.0182.
In the case of CAGACCAG, the “PBM E-score” value was -0.044.
Take CCTGTGCA: the “PBM E-score” value is -0.255.
Take GCCACAAC: the “PBM E-score” value was -0.00493.
As to CCACAGGC, the “PBM E-score” value is -0.399.
As to AGAGCGCC, the “PBM E-score” value was -0.0862.
Next, AGTACCGA: 0.0931; ACGAGCCA: 0.0269; GATTGACC: -0.0794.
